Reference: the supplement of paper PMC4967469
pIC50: −log10 of the molar value. By IC50 is meant the dose at which the fit gives 50% viability; fits outside the tested doses are given as limits. For AUC the same curve is integrated over the 256-fold range of doses and scaled to a fraction; the more sensitive the line, the further below 1. For part of these data: An inferred top dose was derived from the fitted curves, not read from the paper. For part of these data: Where an entry number is given, a second screen of the drug exists; the two often differ.

Tests used:
Test in all cases: Viability of human cancer cell lines after 72 h of drug (GDSC screen)
[1] = compound: CCCS(=O)(=O)Nc1ccc(F)c(C(=O)c2c[nH]c3ncc(Cl)cc23)c1F [PLX4720]; conditions: top dose 10 µM
Experimental: (§1)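 Human cancer cell lines in 384-well plates, medium with 10% serum, drug for 72 h over a 256-fold dose range (nine 2-fold or five 4-fold steps up to the top dose). Adherent lines were fixed and stained with the nucleic acid dye Syto60, suspension lines read with resazurin; signal relative to control wells, capped at 0 and 100%. One two-parameter sigmoid per drug and line, fitted in a mixed model over all curves with the slope shared within a line.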

[2] = compound: NC(=O)Nc1sc(-c2ccc(F)cc2)cc1C(N)=O [TPCA-1]; conditions: top dose 20 µM
Experimental: as §1

[3] = compound: C[C@@H](N)c1ccc(C(=O)Nc2ccnc3[nH]ccc23)cc1 [Y-39983]; conditions: top dose 20 µM; top dose inferred
Experimental: as §1

[4] = compound: CC(C)CC(=O)Nc1n[nH]c2c1CN(C(=O)C1CCN(C)CC1)C2(C)C [PHA-793887]; conditions: top dose 10.24 µM
Experimental: as §1

[5] = screen: GDSC drug entry 1371, top dose inferred

| Cell Line | AUC ([1]; screen: GDSC drug entry 1036) | pIC50 ([1]; screen: GDSC drug entry 1036) | AUC [1, 5] | pIC50 [1, 5] | AUC [2] | pIC50 [2] | AUC [3] | pIC50 [3] | AUC [4] | pIC50 [4] |
| --- | --- | --- | --- | --- | --- | --- | --- | --- | --- | --- |
| A549 (lung adenocarcinoma, adherent) | 0.917 | < 5.00 | 0.953 | < 5.00 |  |  |  |  |  |  |
| BALL-1 (B-cell leukaemia, suspension) | 0.985 | < 5.00 | 0.989 | < 5.00 |  |  |  |  |  |  |
| BT-549 (breast, adherent) | 0.979 | < 5.00 | 0.962 | < 5.00 |  |  |  |  |  |  |
| CADO-ES1 (Ewing sarcoma, suspension) | 0.965 | < 5.00 | 0.986 | < 5.00 | 0.472 | 5.98 | 0.835 | 4.87 | 0.926 | < 4.99 |
| CHP-134 (neuroblastoma, suspension) | 0.895 | < 5.00 |  |  | 0.657 | 5.41 | 0.648 | 5.44 | 0.672 | 5.65 |
| CL-34 (large intestine, adherent) | 0.811 | 5.22 | 0.792 | 5.29 |  |  |  |  |  |  |
| CL-40 (large intestine, adherent) | 0.976 | < 5.00 | 0.95 | < 5.00 |  |  |  |  |  |  |
| CML-T1 (chronic myeloid leukaemia, suspension) | 0.907 | 5.02 | 0.921 | < 5.00 |  |  |  |  |  |  |
| COR-L32 (small cell lung carcinoma, suspension) |  |  | 0.963 | < 5.00 |  |  |  |  |  |  |
| COR-L303 (small cell lung carcinoma, suspension) |  |  |  |  | 0.902 | < 4.70 | 0.987 | < 4.70 | 0.67 | 5.73 |
| COR-L311 (small cell lung carcinoma, suspension) |  |  |  |  | 0.77 | 5.09 | 0.97 | < 4.70 | 0.486 | 6.23 |
| COR-L321 (lung, suspension) | 0.98 | < 5.00 | 0.969 | < 5.00 | 0.912 | < 4.70 | 0.974 | < 4.70 | 0.8 | 5.31 |
| D-423MG (glioma, adherent) | 0.894 | < 5.00 | 0.924 | < 5.00 | 0.828 | 4.79 | 0.776 | 5.01 | 0.926 | < 4.99 |
| D-566MG (glioma, adherent) | 0.904 | < 5.00 | 0.899 | < 5.00 | 0.823 | 4.94 | 0.762 | 5.15 | 0.928 | < 4.99 |
| DIFI (large intestine, adherent) | 0.979 | < 5.00 | 0.986 | < 5.00 |  |  |  |  |  |  |
| DOV13 (ovary, adherent) | 0.886 | < 5.00 | 0.884 | < 5.00 | 0.971 | < 4.70 | 0.98 | < 4.70 | 0.984 | < 4.99 |
| EMC-BAC-1 (lung adenocarcinoma, adherent) | 0.947 | < 5.00 | 0.973 | < 5.00 | 0.703 | 5.29 | 0.884 | < 4.70 | 0.889 | < 4.99 |
| EMC-BAC-2 (lung adenocarcinoma, adherent) | 0.894 | < 5.00 | 0.827 | 5.11 | 0.764 | 5.07 | 0.919 | < 4.70 | 0.583 | 5.95 |
| ESO26 (oesophagus, adherent) | 0.986 | < 5.00 | 0.987 | < 5.00 | 0.629 | 5.56 | 0.764 | 5.16 | 0.333 | 6.64 |
| ESO51 (oesophagus, semi-adherent) | 0.956 | < 5.00 | 0.965 | < 5.00 | 0.93 | < 4.70 | 0.974 | < 4.70 | 0.848 | < 4.99 |

| Cell Line | AUC ([1]; screen: GDSC drug entry 1036) | pIC50 ([1]; screen: GDSC drug entry 1036) | AUC [1, 5] | pIC50 [1, 5] | AUC [2] | pIC50 [2] | AUC [3] | pIC50 [3] | AUC [4] | pIC50 [4] |
| --- | --- | --- | --- | --- | --- | --- | --- | --- | --- | --- |
| FLO-1 (oesophagus, adherent) | 0.931 | < 5.00 | 0.885 | < 5.00 | 0.584 | 5.63 | 0.901 | < 4.70 | 0.837 | < 4.99 |
| H2810 (mesothelioma, adherent) |  |  | 0.984 | < 5.00 |  |  |  |  |  |  |
| HCC-366 (non-small cell lung carcinoma, adherent) | 0.978 | < 5.00 | 0.976 | < 5.00 |  |  |  |  |  |  |
| Hey (ovary, adherent) | 0.947 | < 5.00 | 0.957 | < 5.00 | 0.885 | 4.71 | 0.876 | 4.75 | 0.56 | 6.03 |
| Hs746T (stomach, adherent) | 0.976 | < 5.00 | 0.978 | < 5.00 | 0.923 | < 4.70 | 0.919 | < 4.70 | 0.926 | < 4.99 |
| IGROV-1 (ovary, adherent) | 0.94 | < 5.00 | 0.946 | < 5.00 |  |  |  |  |  |  |
| JEKO-1 (B-cell lymphoma, suspension) | 0.862 | 5.10 | 0.93 | < 5.00 |  |  |  |  |  |  |
| JHOS-4 (ovary, adherent) | 0.978 | < 5.00 | 0.952 | < 5.00 |  |  |  |  |  |  |
| Jurkat (T-cell leukaemia, suspension) | 0.989 | < 5.00 | 0.968 | < 5.00 |  |  |  |  |  |  |
| KARPAS-1106P (B-cell lymphoma, suspension) | 0.99 | < 5.00 | 0.991 | < 5.00 |  |  |  |  |  |  |
| KATOIII (stomach, semi-adherent) | 0.938 | < 5.00 | 0.986 | < 5.00 |  |  |  |  |  |  |
| KNS-62 (lung squamous cell carcinoma, adherent) | 0.808 | 5.08 | 0.886 | < 5.00 |  |  |  |  |  |  |
| MEL-HO (melanoma, adherent) | 0.434 |  | 0.579 | 5.99 |  |  |  |  |  |  |
| MHH-CALL-2 (B-cell leukaemia, suspension) | 0.979 | < 5.00 | 0.997 | < 5.00 |  |  |  |  |  |  |
| MKN7 (stomach, adherent) | 0.978 | < 5.00 | 0.975 | < 5.00 |  |  |  |  |  |  |
| MM1S (myeloma, suspension) | 0.987 | < 5.00 |  |  |  |  |  |  |  |  |
| MOLM-16 (acute myeloid leukaemia, suspension) | 0.828 | 5.28 | 0.944 | < 5.00 |  |  |  |  |  |  |
| MOLT-16 (T-cell lymphoblastic leukaemia, suspension) | 0.967 | < 5.00 | 0.93 | < 5.00 |  |  |  |  |  |  |
| NCC010 (kidney, adherent) | 0.974 | < 5.00 | 0.952 | < 5.00 |  |  |  |  |  |  |
| NCI-H146 (small cell lung carcinoma, suspension) | 0.986 | < 5.00 | 0.993 | < 5.00 |  |  |  |  |  |  |

| Cell Line | AUC ([1]; screen: GDSC drug entry 1036) | pIC50 ([1]; screen: GDSC drug entry 1036) | AUC [1, 5] | pIC50 [1, 5] | AUC [2] | pIC50 [2] | AUC [3] | pIC50 [3] | AUC [4] | pIC50 [4] |
| --- | --- | --- | --- | --- | --- | --- | --- | --- | --- | --- |
| NCI-H508 (large intestine, semi-adherent) | 0.75 | 5.26 | 0.953 | < 5.00 |  |  |  |  |  |  |
| NCI-H835 (lung carcinoid, suspension) | 0.988 | < 5.00 | 0.99 | < 5.00 |  |  |  |  |  |  |
| NCI-H929 (myeloma, suspension) | 0.964 | < 5.00 | 0.985 | < 5.00 |  |  |  |  |  |  |
| NCI-H1105 (small cell lung carcinoma, suspension) | 0.993 | < 5.00 | 0.993 | < 5.00 |  |  |  |  |  |  |
| NCI-H1341 (small cell lung carcinoma, suspension) | 0.989 | < 5.00 | 0.983 | < 5.00 |  |  |  |  |  |  |
| NCI-H2066 (small cell lung carcinoma, adherent) | 0.975 | < 5.00 | 0.977 | < 5.00 |  |  |  |  |  |  |
| NCI-N87 (stomach, adherent) | 0.972 | < 5.00 | 0.976 | < 5.00 |  |  |  |  |  |  |
| OCI-LY7 (B-cell lymphoma, suspension) | 0.819 | 5.42 |  |  |  |  |  |  |  |  |
| PWR-1E (prostate, adherent) | 0.967 | < 5.00 | 0.986 | < 5.00 |  |  |  |  |  |  |
| RCH-ACV (B-cell leukaemia, suspension) | 0.96 | < 5.00 | 0.978 | < 5.00 |  |  |  |  |  |  |
| RH-18 (rhabdomyosarcoma, adherent) | 0.891 | < 5.00 | 0.976 | < 5.00 |  |  |  |  |  |  |
| SK-GT-2 (stomach, adherent) | 0.942 | < 5.00 | 0.979 | < 5.00 |  |  |  |  |  |  |
| SK-MEL-31 (melanoma, adherent) | 0.935 | < 5.00 | 0.926 | < 5.00 |  |  |  |  |  |  |
| SNU-175 (large intestine, suspension) |  |  |  |  | 0.812 | 5.01 | 0.805 | 5.03 | 0.468 | 6.28 |
| SUP-B8 (B-cell leukaemia, suspension) | 0.806 | 5.30 | 0.986 | < 5.00 |  |  |  |  |  |  |
| TC-YIK (cervix, suspension) | 0.97 | < 5.00 | 0.968 | < 5.00 |  |  |  |  |  |  |
| U-266 (myeloma, semi-adherent) | 0.964 | < 5.00 | 0.973 | < 5.00 |  |  |  |  |  |  |
| VMRC-LCD (lung adenocarcinoma, adherent) | 0.993 | < 5.00 | 0.969 | < 5.00 |  |  |  |  |  |  |
| YMB-1-E (breast, adherent) |  |  |  |  | 0.981 | < 4.70 | 0.969 | < 4.70 | 0.853 | < 4.99 |
| ZR-75-30 (breast, adherent) | 0.983 | < 5.00 | 0.979 | < 5.00 |  |  |  |  |  |  |
